Tests used:
[1] = target: T1, DmNobo (recombinant Noppera-bo) (Drosophila melanogaster, UniProt Q7JYX0); design: method as in PMID 35172816, PMID 32241910, PMID 33746549; settings: previous high-throughput screens; cited from earlier work
[2] = target: T1, DmNobo (recombinant Noppera-bo); settings: 3,4-DNADCF assay
[3] = target: AeNobo (recombinant Noppera-bo) (Aedes aegypti, UniProt A0A1S4FIB3)
[4] = tested on: mitochondrial respiration in HeLa cells; test: Measurement of mitochondrial respiration (OCR/ECAR, Seahorse XFe96 extracellular flux analyzer); settings: OCR/ECAR phenotype

T1 sequence (Q7JYX0 whole entry): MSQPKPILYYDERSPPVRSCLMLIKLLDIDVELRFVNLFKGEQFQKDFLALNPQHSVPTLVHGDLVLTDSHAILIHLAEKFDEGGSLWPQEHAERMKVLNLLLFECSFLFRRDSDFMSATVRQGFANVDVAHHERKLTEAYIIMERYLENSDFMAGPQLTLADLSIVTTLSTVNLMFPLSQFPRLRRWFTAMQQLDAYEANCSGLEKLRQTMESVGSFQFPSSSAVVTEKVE

Question: For C[C@]12CC[C@@H]3c4ccc(O)cc4CC[C@H]3[C@@H]1CC[C@@H]2O [17β-estradiol], which “DmNobo inhibition (in words)” value [1] is on record?
Answer: The value was “identified as a DmNobo inhibitor”.

Question: What does the source list for C/C=C/[C@@H]1C=C[C@@H]2C[C@H](C)CC[C@H]2[C@]1(C)C(=O)C1=C(O)[C@H](CO)N(C)C1=O [Compound 1, equisetin]?
Answer: inhibitory activity against DmNobo (in words) [2]: moderate activity; IC50 [3]: > 20 µM

Question: With C/C=C/C=C/[C@H]1C(C)=C[C@H]2C[C@@H](C)CC[C@@H]2[C@@]1(C)C(=O)C1=C(O)[C@@H](CO)N(C)C1=O [Compound 2, phomasetin] as the molecule, how does the “inhibitory activity against DmNobo (in words)” value [2] read?
Answer: Its value is “moderate activity”.

Question: What about the IC50 [3] of the same molecule?
Answer: Its IC50 is greater than 20 µM.

Question: For C/C=C/[C@H]1C=C[C@H]2C[C@H](C)CC[C@H]2[C@]1(C)C(=O)C1=C(O)[C@H](CO)N(C)C1=O [Compound 3, cis-equisetin], which “mitochondrial inhibitory activity (in words)” value [4] is on record?
Answer: Its value is “higher mitochondrial inhibitory activity than the trans isomer 1”.

Question: What about the IC50 [3] of the same molecule?
Answer: Its IC50 is greater than 20 µM.

Question: With C/C=C/C=C/[C@@H]1C(C)=C[C@@H]2C[C@@H](C)CC[C@@H]2[C@@]1(C)C(=O)C1=C(O)[C@@H](CO)NC1=O [Compound 4, N-demethyl-cis-phomasetin] as the molecule, how does the IC50 [3] read?
Answer: Its IC50 is greater than 20 µM.

Question: With C/C=C/C=C/[C@H]1C(C)=C[C@H]2C[C@@H](C)CC[C@@H]2[C@@]1(C)C(=O)C1=C(O)[C@@H](CO)NC1=O [Compound 5, N-demethylphomasetin] as the molecule, how does the “inhibitory activity against DmNobo (in words)” value [2] read?
Answer: Its value is “moderate activity”.

Question: And the IC50 [3]?
Answer: The IC50 was greater than 20 µM.

Question: Which “inhibitory activity against DmNobo (in words)” value [2] does the source give for CC[C@H](C)C(=O)O[C@H]1CCC=C2C=C[C@H](C)[C@H](CC[C@@H]3C[C@@H](O)CC(=O)O3)[C@H]21 [mevastatin, reference compound] here?
Answer: Its value is “little effect”.

Source: publication PMC10470909, “cis-Decalin-containing tetramic acids as inhibitors of insect steroidogenic glutathione S-transferase Noppera-bo” (PLOS ONE, 2023)
